The assay concerns CT26 colon cancer cells. The note with it: 2 doses of 25 μg/dose cdAMP(ps)2 intratumorally. The procedure:
When tumor size reach ˜60 mm^3, 2 doses of 25 μg/dose cdAMP(ps)2 were administrated intra-tumorally on days 10 and 15. To evaluate antigen-specific immune responses, PBMCs were collected for tetramer staining on day 17 and ELISPOT analysis with AH1 antigen peptides on day 22. […] For the survival of mice after treatment, median survival time for untreated. CDN, CDN-Zn and CDNs@CaP/PEI-PEG group was 23 days, 42 days, 64 days and unreached, respectively (FIG. 4B).
For PBMC tetramer staining assay, no significant difference was observed among the groups (FIG. 4D). PBMC tetramer staining may not be sensitive enough to show antigen-specific T cell response after non-specific intra-tumoral CDN stimulation or the time point may not have been optimal. […]
All animals were cared for following federal, state, and local guidelines. […] Tumor size and survival were monitored every 2 or 3 days. Tumor size was calculated based on equation: volume=length×width^2×0.5. […] At day 17, the percentages of tumor antigen-specific CD8α+ T cells among PBMC were analyzed using the tetramer staining assay as described previously with peptide-MHC tetramer (H-2Kb-restricted AH1) (the NIH Tetramer Core Facility, Atlanta, GA). […]
We also evaluated a subset of the formulations mentioned above in tumor-bearing mice. […]

Regarding cdAMP(ps)2 [free CDN], the median survival time worked out at 42 days. Moreover, the “average tumor growth compared with the untreated group” value (days 10 and 15) is listed as “greatly delayed”.

The values above are taken from patent US12622922B2, “Compositions and methods for metal containing formulations capable of modulating immune response” (The Regents of the University of Michigan, priority 2018, dated 2026).
